# Measurements: the supplement of paper PMC8728848
# The other results are listed elsewhere or left out.
# Legend:
# Assay in all cases: glycan array binding signal (z-score within array); higher = stronger binding
# Conditions in all cases: glycan notation: IUPAC condensed, linker removed
# [1] = molecular target: Gal6S(b1-4)Glc6S
# In short: (§1)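 Negative Z-scores can be read as non-binding. The Z-score is calculated within each array and then averaged across arrays of one protein sequence at different concentrations or buffers and across linkers. Arrays, 3228 in all, were curated from the Consortium for Functional Glycomics database and kept only where the protein sequence was available.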
# [2] = molecular target: Gal6S(b1-4)GlcNAc
# In short: as §1
# [3] = molecular target: Gal6S(b1-4)GlcNAc6S
# In short: as §1
# [4] = molecular target: GalNAc(a1-3)Gal
# In short: as §1
# [5] = molecular target: GalNAc(a1-3)GalNAc
# In short: as §1
# [6] = molecular target: GalNAc(a1-3)GalNAc(b1-3)Gal(a1-4)Gal(b1-4)Glc
# In short: as §1
# [7] = molecular target: GalNAc(a1-3)GalNAc(b1-3)Gal(a1-4)Gal(b1-4)GlcNAc
# In short: as §1
# [8] = molecular target: GalNAc(b1-3)Gal
# In short: as §1
# [9] = molecular target: GalNAc(b1-3)Gal(a1-4)Gal(b1-4)GlcNAc
# In short: as §1
# [10] = molecular target: GalNAc(b1-3)Gal(a1-4)Gal(b1-4)GlcNAc(b1-3)Gal(b1-4)Glc
# In short: as §1
# [11] = molecular target: GalNAc(b1-3)Gal(a1-6)Gal(b1-4)Glc
# In short: as §1
# [12] = molecular target: GalNAc(b1-3)GalNAc
# In short: as §1
# [13] = molecular target: GalNAc(b1-3)GlcNAc
# In short: as §1
# [14] = molecular target: GalNAc(b1-4)Gal(b1-4)Glc
# In short: as §1
# [15] = molecular target: GalNAc(b1-4)GlcNAc
# In short: as §1
# [16] = molecular target: GalNAc(b1-4)GlcNAc(b1-2)Man
# In short: as §1
# [17] = molecular target: GalNAc(b1-4)GlcNAc(b1-2)Man(a1-3)[GalNAc(b1-4)GlcNAc(b1-2)Man(a1-6)]Man(b1-4)GlcNAc(b1-4)GlcNAc
# In short: as §1
# [18] = molecular target: GalNAc(b1-4)GlcNAc(b1-3)GalNAc(b1-4)GlcNAc
# In short: as §1
# [19] = molecular target: GalNAc(b1-4)GlcNAc6S
# In short: as §1
# [20] = molecular target: GalNAc(b1-6)GalNAc
# In short: as §1
# [21] = molecular target: GalNAc3S(b1-4)GlcNAc
# In short: as §1
# [22] = molecular target: GalNAc3S(b1-4)GlcNAc3S
# In short: as §1
# [23] = molecular target: GalNAc3S(b1-4)[Fuc(a1-3)]GlcNAc
# In short: as §1
# [24] = molecular target: GalNAc4S6S(b1-4)GlcNAc
# In short: as §1
# [25] = molecular target: GalNAc6S(b1-4)GlcNAc
# In short: as §1
# [26] = molecular target: Glc(a1-4)Glc
# In short: as §1
# [27] = molecular target: Glc(a1-4)Glc(a1-4)Glc(a1-4)Glc
# In short: as §1
# [28] = molecular target: Glc(a1-6)Glc(a1-6)Glc
# In short: as §1
# [29] = molecular target: Glc(a1-6)Glc(a1-6)Glc(a1-6)Glc
# In short: as §1
# [30] = molecular target: Glc(b1-4)Glc
# In short: as §1
# [31] = molecular target: Glc(b1-6)Glc
# In short: as §1
# [32] = molecular target: GlcA(b1-3)Gal
# In short: as §1
# [33] = molecular target: GlcA(b1-3)GlcNAc
# In short: as §1
# [34] = molecular target: GlcA(b1-6)Gal
# In short: as §1
# [35] = molecular target: GlcA3S(b1-3)Gal(b1-4)GlcNAc(b1-2)Man
# In short: as §1
# [36] = molecular target: GlcA3S(b1-3)Gal(b1-4)GlcNAc(b1-3)Gal(b1-4)Glc
# In short: as §1
# [37] = molecular target: GlcNAc(a1-3)Gal(b1-4)GlcNAc
# In short: as §1
# [38] = molecular target: GlcNAc(a1-4)Gal(b1-3)GlcNAc
# In short: as §1
# [39] = molecular target: GlcNAc(a1-4)Gal(b1-4)GalNAc
# In short: as §1
# [40] = molecular target: GlcNAc(a1-4)Gal(b1-4)GlcNAc
# In short: as §1
# [41] = molecular target: GlcNAc(a1-4)Gal(b1-4)GlcNAc(b1-3)Gal(b1-4)Glc
# In short: as §1
# [42] = molecular target: GlcNAc(a1-4)Gal(b1-4)GlcNAc(b1-3)Gal(b1-4)GlcNAc
# In short: as §1
# [43] = molecular target: GlcNAc(a1-4)Gal(b1-4)GlcNAc(b1-3)Gal(b1-4)GlcNAc(b1-3)Gal(b1-4)GlcNAc
# In short: as §1
# [44] = molecular target: GlcNAc(a1-4)Gal(b1-4)GlcNAc(b1-3)Gal(b1-4)[Fuc(a1-3)]GlcNAc(b1-3)Gal(b1-4)[Fuc(a1-3)]GlcNAc
# In short: as §1
# [45] = molecular target: GlcNAc(a1-6)Gal(b1-4)GlcNAc
# In short: as §1
binder,measurement,setting,value
FimA-N3 (Actinomyces oris) (protein) MHHHHHHSSGVDLGTENLYFQSNAGLQGAQFQLYKAKNAYANTCSNEKEGAPIAINGQTTLTTDAQGAIDIKGLFISDSIDGADRDNQVNAMERCYVLVETKAPAGYVLPAGNGAATPVKVKAGEETTDN,glycan array binding signal (z-score),[1],0.022
same,glycan array binding signal (z-score),[2],1.07
same,glycan array binding signal (z-score),[3],-0.192
same,glycan array binding signal (z-score),[4],1.87
same,glycan array binding signal (z-score),[5],-0.412
same,glycan array binding signal (z-score),[6],-0.494
same,glycan array binding signal (z-score),[7],-0.164
same,glycan array binding signal (z-score),[8],2.63
same,glycan array binding signal (z-score),[9],0.281
same,glycan array binding signal (z-score),[10],1.45
same,glycan array binding signal (z-score),[11],-0.438
same,glycan array binding signal (z-score),[12],-0.297
same,glycan array binding signal (z-score),[13],-0.23
same,glycan array binding signal (z-score),[14],0.001
same,glycan array binding signal (z-score),[15],-0.022
same,glycan array binding signal (z-score),[16],-0.129
same,glycan array binding signal (z-score),[17],0.026
same,glycan array binding signal (z-score),[18],-0.42
same,glycan array binding signal (z-score),[19],-0.302
same,glycan array binding signal (z-score),[20],2.29
same,glycan array binding signal (z-score),[21],-0.182
same,glycan array binding signal (z-score),[22],-0.198
same,glycan array binding signal (z-score),[23],-0.42
same,glycan array binding signal (z-score),[24],-0.106
same,glycan array binding signal (z-score),[25],1.1
same,glycan array binding signal (z-score),[26],-0.453
same,glycan array binding signal (z-score),[27],-0.03
same,glycan array binding signal (z-score),[28],-0.527
same,glycan array binding signal (z-score),[29],-0.494
same,glycan array binding signal (z-score),[30],-0.091
same,glycan array binding signal (z-score),[31],0.01
same,glycan array binding signal (z-score),[32],-0.096
same,glycan array binding signal (z-score),[33],0.079
same,glycan array binding signal (z-score),[34],0.264
same,glycan array binding signal (z-score),[35],-0.28
same,glycan array binding signal (z-score),[36],-0.178
same,glycan array binding signal (z-score),[37],0.196
same,glycan array binding signal (z-score),[38],0.148
same,glycan array binding signal (z-score),[39],-0.322
same,glycan array binding signal (z-score),[40],-0.148
same,glycan array binding signal (z-score),[41],0.207
same,glycan array binding signal (z-score),[42],-0.396
same,glycan array binding signal (z-score),[43],-0.21
same,glycan array binding signal (z-score),[44],0.399
same,glycan array binding signal (z-score),[45],-0.298
